The supplement of paper PMC11417369
Some of the results follow.

These sequences were tested on PfSIP2 AP2 domain 1 (GST-tagged) (assay: gcPBM binding intensity (ln(normalized median fluorescence intensity)); higher = stronger DNA binding).
In short: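 After 1 h on an Agilent 4 × 180k array of primer-extended double-stranded 36-bp intergenic genomic probes and negative controls, bound GST-tagged P. falciparum DNA-binding domains were detected with Alexa488 anti-GST antibody and scanned at 488 nm. The domains had been expressed in E. coli, and binding took place in 1× PBS with 1% milk, 0.2 mg/ml BSA, 0.5% salmon testes DNA and 0.03% Triton X-100. Binding intensity is the highest Masliner-normalised natural-log median intensity across replicate spots of either probe orientation.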
For “ATATATATTAATATTTGTACATAAAATTATTTCAAT [XGTACX_site5364]”, the “gcPBM binding intensity (ln)” value was 7.14. With “TACCTTTCTTATTATTGAAAAGGAATATATAAATAG [CACACA_negctrl_site272]” the “gcPBM binding intensity (ln)” value was 6.92. “AATAATAATTTGAATACACACAATAATATATATATA [CACACA_site2059]” was tested, and the “gcPBM binding intensity (ln)” value was 8.45. In the case of “ATACAAAAAATCACATGTACATATTCTTAAATGGTA [XGTACX_site8502]”, the “gcPBM binding intensity (ln)” value is reported as 7.1. In the case of “TTATATCATTTTCCTGCACACATAAATTTATATAAT [CACACA_site8257]”, the “gcPBM binding intensity (ln)” value is reported as 7.58. “ACAAAATATACAAAATGTACAAAATATACAAAATGT [XGTACX_site6467]” was tested, and the “gcPBM binding intensity (ln)” value was 6.98. In the case of “CATATGTATTTATTCACACATATATATATATATATA [CACACA_site4207]”, the “gcPBM binding intensity (ln)” value is reported as 9.38. “TATACAGATAAATACACACACACATATATATATATA [CACACA_site4845]” was tested, and the “gcPBM binding intensity (ln)” value was 9.39. “TTATTCTAAAAGTGTTTGCACTTTTATAATCATATA [GTGCAC_site9929]” was tested, and the “gcPBM binding intensity (ln)” value was 8.02. In the case of “TATATAAAATAATAATGTACTCATTAAAATTATAGA [XGTACX_site4507]”, the “gcPBM binding intensity (ln)” value is reported as 6.96. For “AAAGAAAAAAAAAAAAAAAAAAAAAAAATTATACAT [CACACA_negctrl_site7]”, the “gcPBM binding intensity (ln)” value was 6.73. In the case of “GAATTTCGATATATGTGTACGCATTTGTATTATAGG [XGTACX_site6332]”, the “gcPBM binding intensity (ln)” value is reported as 7.26. “TACATATTGCACAAATAAAAAAGAACAAAAAAAAAA [CACACA_negctrl_site1200]” was tested, and the “gcPBM binding intensity (ln)” value was 7.42. In the case of “ATATATATATATATATGTACATATATTCGATTATTA [XGTACX_site557]”, the “gcPBM binding intensity (ln)” value is reported as 9.84. For “ATAATATTTCTTACCTTTGGATGTTCTAATTTTTTT [CACACA_negctrl_site1317]”, the “gcPBM binding intensity (ln)” value was 6.87. In the case of “TACTTTATATTATATATATATATATATATATATATA [CACACA_negctrl_site1765]”, the “gcPBM binding intensity (ln)” value is reported as 9.12. With “AAAAATAACATATAAACACACATATATATATATATA [CACACA_site3802]” the “gcPBM binding intensity (ln)” value was 9.31. With “TACATAAAATATATCACACATATAATATATATATAT [CACACA_site5834]” the “gcPBM binding intensity (ln)” value was 8.89. For “AAAAAAAAAAAAAAATATAAATATATATATATATAT [GTGCAC_negctrl_site28]”, the “gcPBM binding intensity (ln)” value was 9.5. With “AAACGAACATATAAATGTACATATATATACATATAT [XGTACX_site8086]” the “gcPBM binding intensity (ln)” value was 7.26. “AATTAAATATTATAAACACACATATATATTATTTTT [CACACA_site865]” was tested, and the “gcPBM binding intensity (ln)” value was 6.85. In the case of “TATGTATTAAATTTTACACACATGATTCTCTATATA [CACACA_site2298]”, the “gcPBM binding intensity (ln)” value is reported as 6.91. In the case of ATTGTAAATATAGAAGTGCAAAAGGGTATGAAATGA, the “gcPBM binding intensity (ln)” value is reported as 8.24. In the case of “TACAAAAAAAATGTATTTAGGACATATATATGTTTA [XGTACX_negctrl_site455]”, the “gcPBM binding intensity (ln)” value is reported as 6.73. With “AAAGTATATAGGATACGTACATACATAAATAAATAA [XGTACX_site8216]” the “gcPBM binding intensity (ln)” value was 7.01. With “GTACAAAATTGACAAGTGCAAAAATTAAAAGCAAGA [GTGCAC_site9838]” the “gcPBM binding intensity (ln)” value was 8.67. In the case of “ATATATATATAAATATGTACATATATTTATTTCTTT [XGTACX_site3784]”, the “gcPBM binding intensity (ln)” value is reported as 8.8. With “TATAAAAATAAGCACACACACAAATATAGATTTATT [CACACA_site6558]” the “gcPBM binding intensity (ln)” value was 6.98. “GTGTGAGCACATTCGGGAGAGTTTTTTTTTTTTTTT [CACACA_negctrl_site1776]” was tested, and the “gcPBM binding intensity (ln)” value was 7.31. In the case of “TATATTCAAAATGGTACACACAATATTTAATTGTGC [CACACA_site2631]”, the “gcPBM binding intensity (ln)” value is reported as 6.86. “TGACATATAAAATATTCACACACAAGTTATAGTTCT [CACACA_site9209]” was tested, and the “gcPBM binding intensity (ln)” value was 6.71. With “ACATTTTCTTATAAATGTACATATATATTATTATAT [XGTACX_site4404]” the “gcPBM binding intensity (ln)” value was 7.04. In the case of “TTAATAGAAATACGTGCACACTAAAGGGAAAACAAT [CACACA_site4923]”, the “gcPBM binding intensity (ln)” value is reported as 9.89. “ACAAGTATTAATTACACACTCAAAAAGAAAAAACAA [CACACA_site2281]” was tested, and the “gcPBM binding intensity (ln)” value was 6.92. In the case of “ATATATTCTATATATACATGCATATATATTATATGT [TGCATGCA_site185]”, the “gcPBM binding intensity (ln)” value is reported as 7.04. For “TGAATAAATATGCAGCGTACATAATCCTCTTAAAAT [XGTACX_site8462]”, the “gcPBM binding intensity (ln)” value was 6.87. “GTTAAATGAAAATATGTACACACTTGAAAATTTTTA [CACACA_site2924]” was tested, and the “gcPBM binding intensity (ln)” value was 7.09. For “ATGCAACTATATATATATATTATATGTATGAATAAT [XGTACX_negctrl_site434]”, the “gcPBM binding intensity (ln)” value was 7.16. In the case of “TATATATACACACACACATGCATGCCGATATATATA [TGCATGCA_site29]”, the “gcPBM binding intensity (ln)” value is reported as 7.06. In the case of “AAAAGATATTTGAATATACACACGATTTAAATTTAA [CACACA_site3865]”, the “gcPBM binding intensity (ln)” value is reported as 6.73. With “AAAGATTTAATCTATACATGCAAATATATAGAAAAG [TGCATGCA_site373]” the “gcPBM binding intensity (ln)” value was 6.93. With “AATAAAAATAGGAAATGTACACATATATATATATAT [XGTACX_site1853]” the “gcPBM binding intensity (ln)” value was 8.81. For “AGATGCCAAGTATAAAGTACATATCAAAATGTATAT [XGTACX_site456]”, the “gcPBM binding intensity (ln)” value was 6.95. In the case of “GAACAAAATTTTATATGTACATAATATTTATATATA [XGTACX_site3667]”, the “gcPBM binding intensity (ln)” value is reported as 7.05. “TTATTTTATTTTTATACACACATGTTTTAATGTTCA [CACACA_site249]” was tested, and the “gcPBM binding intensity (ln)” value was 7.01. With “AAAACTTTTAAAATTTTGTATTCATTCCTTCAACAA [GTGCAC_negctrl_site697]” the “gcPBM binding intensity (ln)” value was 6.77. In the case of “TTTATAATTCCATAATGTACAAATAAAATAAAAAAT [XGTACX_site663]”, the “gcPBM binding intensity (ln)” value is reported as 7.2. “AGGAGGATAGTTCACAGTACCCAGTAACTCTACGAG [XGTACX_site2008]” was tested, and the “gcPBM binding intensity (ln)” value was 6.55. “AAAATTAATGTTGGTTGTACAAAAATTAAATATGGT [XGTACX_site66]” was tested, and the “gcPBM binding intensity (ln)” value was 7.55. With “GTACAAAGGACTATACATAGAAAAATATATATATAT [XGTACX_negctrl_site164]” the “gcPBM binding intensity (ln)” value was 9.08. For “GAAAAAAAAAAAAAAAGTACATTCTCTATTTCATGT [XGTACX_site3209]”, the “gcPBM binding intensity (ln)” value was 6.83. In the case of “ATAAATTTAAATAGGAGTACACAGCTTTATATTTTG [XGTACX_site4176]”, the “gcPBM binding intensity (ln)” value is reported as 7.45. In the case of “TAATTACCATATGGTACACACATATTTATAGGTATA [CACACA_site7603]”, the “gcPBM binding intensity (ln)” value is reported as 7.04. For “CGCGCACCCAGACACACACACACACCCATATATATA [CACACA_site2203]”, the “gcPBM binding intensity (ln)” value was 10.8. In the case of “ACGTATAATATGTACACACACATATATACCAAAAAA [CACACA_site4661]”, the “gcPBM binding intensity (ln)” value is reported as 7.53. In the case of “GATAAAATAATATATAGTACTTTTTTAAAATAAATA [XGTACX_site522]”, the “gcPBM binding intensity (ln)” value is reported as 7.1.
